Laboratory results reported in the RNAGym collection of RNA variant scans (doi:10.7554/elife.90254).
Read counts are not given, so values of variants with three or more changes are uncertain.

B1: LINE1-mini (parent)
chain: GGCAGAGCUCAACACAGCGUGGCAAAGUGGCUGUGGCUAGACUGCC

Variants of: B1
Test: self-cleavage, relative activity (ratio to wild type); higher = more cleavage; in vitro, sequencing; the parent is a self-cleaving ribozyme

Variant	self-cleavage
G27U G30A U43C C45U	0.15
G27U G30C A41C	0.17
G27U G30C G36U	0.05
G27U G30C G40U	2.38
G27U G30U A39U	1.19
G27U G30U G40A	0.56
G27U G30U G40C U43A C45G	0.03
G27U G30U G44A	0.14
G27U G30U U38A	0.77
G27U G33C C46G	0.05
G27U G33C G35U G44U	0.08
G27U G33U C37A	0.04
G27U G33U C37A A41U	0.04
G27U G33U G44A	0.07
G27U G35A G44C	0.07
G27U G35U G36U C42A	0.14
G27U G36C A39U U43A	0.02
G27U G36C C37G	0.29
G27U G36C C37U U38C U43A G44U	0.01
G27U G36C U38A C46A	0.04
G27U G36U G44U	0.46

Variant	self-cleavage
G27U G40A C45A	0.37
G27U U28A A39U	0.21
G27U U28G G30U G33U	0.33
G27U U28G G35U C37G G40A	0.01
G27U U28G G36U C37A	0.01
G27U U28G U38C G44A	0.02
G27U U32C U34A G40C A41G C46G	0.06
G27U U32G A41C C45G	0.1
G27U U32G G35C	0.03
G27U U32G U43A	0.03
G27U U34C G35A C46A	0.15
U28A A39U C45A	0.15
U28A A41C C42A	0.01
U28A C31A C37U G44C	0.07
U28A C31A G44A	0.17
U28A C31A U38G	0.03
U28A C31G U38A A39C	0.05
U28A C31U C37A U38C	0.02
U28A C31U C45A	0.08
U28A C37A A39G	0.03
U28A C37A C42A	0.03

Variant	self-cleavage
U28A C37U C45A	0.03
U28A C37U G40U	0.02
U28A C42A C46A	0.07
U28A C42G C46U	0.02
U28A C45A C46U	0.36
U28A G29C C31U C45U	0.44
U28A G29U G35A C37U	0.02
U28A G30A A39U	0.58
U28A G30A C45G	0.64
U28A G30A G35C	0.01
U28A G30C G44A	0.13
U28A G30C U43C	0.02
U28A G30U C31A C46U	0.45
U28A G30U G44A	0.06
U28A G30U U32A	0.15
U28A G33A A41C	0
U28A G33A U34G G35U	0.01
U28A G33C A39C	0.09
U28A G33U C37A A41C	0.1
U28A G33U G36C	0.05
U28A G35U A39G U43A C45A	0.1

Variant	self-cleavage
U28A G35U C37A A41C	0.02
U28A G35U C45U C46U	0.19
U28A G36C C42A	0.04
U28A G44U C46G	0.1
U28A U34C C37U A41U	0.02
U28A U34C G36A	0.03
U28A U34G U38G U43A	0.06
U28A U38G C46A	0.06
U28C C31G G36A	0.05
U28C C31G U34G C45A	0.04
U28C C31U A39G	0.03
U28C C31U C45A	0.35
U28C C31U C46A	0.05
U28C C42G C45G	0.03
U28C G29A C37U	0.02
U28C G30A A41U C42U C45U	0.05
U28C G30A C45U	0.85
U28C G30A G33U	0.08
U28C G30U G40U	0.03
U28C G30U U32A C37A G44U	0.02
